Data: PubChem BioAssay AID488969 (Vanderbilt High Throughput Screening Facility, 2010)
Whole data set: some 110,000 compounds, median “z-score” near -0.1, cut for the highest 2% near 2. The list shows a part of the results. The source made the active and inactive calls.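 How the source made its calls: active means z-score in the third read window above 3 or below -3; inactive means the rest.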

Each molecule was assayed against Metabotropic glutamate receptor 8 (Rattus norvegicus) (UniProt P70579) (assay: mGluR8 Gi/Go-coupled signaling modulation – cell-based, rat, thallium flux, HTS, primary screen (AID 488969)). Conditions: HEK293 rat mGluR8, GIRK (G protein-gated inwardly rectifying potassium channel) thallium flux, FluoZin2; at 10 µM; stronger effect = higher value; submaximal glutamate (EC20) added with thallium.
Sequence of UniProt P70579 (P70579 whole entry, looked up): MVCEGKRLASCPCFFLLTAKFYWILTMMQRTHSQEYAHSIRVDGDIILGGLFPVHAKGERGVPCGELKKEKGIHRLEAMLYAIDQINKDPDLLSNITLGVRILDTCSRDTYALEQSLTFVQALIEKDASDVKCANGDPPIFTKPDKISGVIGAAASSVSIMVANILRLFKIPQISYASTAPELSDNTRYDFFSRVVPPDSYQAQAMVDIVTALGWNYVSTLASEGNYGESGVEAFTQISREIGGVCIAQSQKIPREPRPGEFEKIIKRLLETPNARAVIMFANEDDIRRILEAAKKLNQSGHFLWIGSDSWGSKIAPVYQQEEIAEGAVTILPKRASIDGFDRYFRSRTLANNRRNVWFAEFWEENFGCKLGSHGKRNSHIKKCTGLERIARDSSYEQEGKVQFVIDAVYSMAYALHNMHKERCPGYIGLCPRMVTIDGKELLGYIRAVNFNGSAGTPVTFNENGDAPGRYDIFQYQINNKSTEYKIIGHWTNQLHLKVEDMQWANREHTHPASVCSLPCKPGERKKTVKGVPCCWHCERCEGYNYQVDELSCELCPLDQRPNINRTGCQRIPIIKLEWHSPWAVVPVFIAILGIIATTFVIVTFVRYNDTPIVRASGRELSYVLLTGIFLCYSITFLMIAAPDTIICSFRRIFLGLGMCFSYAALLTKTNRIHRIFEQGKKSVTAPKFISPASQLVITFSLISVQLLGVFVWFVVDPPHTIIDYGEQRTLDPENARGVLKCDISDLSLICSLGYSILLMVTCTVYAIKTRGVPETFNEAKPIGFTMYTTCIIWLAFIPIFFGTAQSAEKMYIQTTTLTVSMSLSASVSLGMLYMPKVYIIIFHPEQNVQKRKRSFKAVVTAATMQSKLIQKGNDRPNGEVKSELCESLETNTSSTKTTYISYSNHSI

Row | Compound | z-score
1 | O=C(NCCO)c1c(O)c2cccc3c2n(c1=O)CC3 | 0.564
2 | O=C(CCn1c(=O)oc2ccccc21)N(Cc1ccccc1)c1ccccn1 | 0.207
3 | COc1ccc(/C=C/C(=O)c2c(C)nc3ccccn23)cc1 | -0.28
4 | Cc1cc(C(=O)N/N=C2\CC(=O)CC(C)(C)C2)c(C)n1-c1ccccc1 | -0.102
5 | CC1CCC(C(C)C)C(OC(=O)C2=C3c4ccccc4S(=O)(=O)N3CC2)C1 (stereo unspecified) | -0.046
6 | Cc1ccc2nc(/C(C#N)=C\c3cc(C)n(-c4cccc([N+](=O)[O-])c4)c3C)[nH]c2c1 | -0.342
7 | CC1(C)CC(=O)c2cc(C(=O)NCc3ccco3)c(=O)n(-c3ccc(Cl)cc3)c2C1 | -0.635
8 | Cc1[nH]c(=O)[nH]c(=O)c1S(=O)(=O)N1c2ccc(F)cc2CCC1C (stereo unspecified) | 0.0752
9 | O=C1OCC(CO)(CO)N=C1NNc1ccc(Cl)c(Cl)c1 | 0.458
10 | Cc1cccc(Cn2c(Sc3nc(C)cs3)nc3c2c(=O)[nH]c(=O)n3C)c1 | -1.25
11 | O=C1C2C(c3ccccc3)=NN(c3ccccc3)C2C(=O)N1c1ccccc1 (stereo unspecified) | -0.169
12 | c1ccc(-c2n[nH]c(-c3ccccn3)n2)cc1 | -0.134
13 | CCOCC(=O)Nc1cccc(C(=O)OCC)c1 | -0.217
14 | CC1(C)CC(=O)C=C(NC2CCCCCCC2)C1 | -0.289
15 | Nc1ccccc1-c1nnc(-c2ccc(-c3ccccc3)cc2)o1 | 0.084
16 | O=C(NCc1cccnc1)NC1(C(F)(F)F)Oc2ccccc2O1 | -0.523
17 | O=c1c2ccccc2nc(SCc2ccc([N+](=O)[O-])cc2)n1-c1ccccc1 | -0.334
18 | COc1ccccc1-c1cnnc(N/N=C/c2ccc(-c3cccc(Br)c3)o2)n1 | 0.0172
19 | COc1ccc(-c2c(O)c(C#N)c(-c3ccccc3)n(-c3ccc(OC)cc3)c2=O)cc1 | -0.447

Row | Compound | z-score
20 | COC(=O)c1cc2occc2n1CC(=O)Nc1ccc(OC)c(OC)c1OC | -0.118
21 | O=C1C=C(O)CC(c2ccc(Cl)cc2)C1 (stereo unspecified) | 0.109
22 | Cc1cc(C)c2nc(SC(C)C#N)cc(C)c2c1 (stereo unspecified) | 0.103
23 | CC(C)(Cl)C1Cc2cc3ccc(=O)oc3cc2O1 (stereo unspecified) | -0.056
24 | O=S(=O)(/N=C(\c1ccccc1)N1CCOCC1)c1ccc(Cl)cc1 | -0.155
25 | O=C(CCCc1cccs1)Nc1nc(-c2ccc(F)cc2)cs1 | -0.134
26 | Clc1ccc(CSc2snnc2-c2ccccc2)cc1 | -0.0684
27 | CCOC(=O)CSCC(=O)N1N=C(c2cccs2)CC1c1ccc(F)cc1 (stereo unspecified) | -0.537
28 | CC(=O)N1C(=O)N(C(C)=O)C2C1N(C(C)=O)C(=O)N2C(C)=O (stereo unspecified) | -0.295
29 | CCc1ccc(OCC(=O)NC(=S)Nc2ccc(S(=O)(=O)NC3CCCCC3)cc2)cc1 | 0.997
30 | Cc1csc(NC(=S)Nc2cccc(Cl)c2)n1 | active: 14.7
31 | Cc1ccc(NC2=C/C(=N/S(=O)(=O)c3cccs3)c3ccccc3C2=O)cc1 | -0.0469
32 | O=C(Nc1ccc2c(c1)OCCO2)c1cnc2ccccn2c1=O | -1.29
33 | CCOC(=O)CNC(=O)CSc1ncnc2c1cnn2Cc1ccccc1 | 1.54
34 | COc1ccccc1C(=O)Nn1cnc2ccccc2c1=O | 0.366
35 | COc1cccc(C(=O)COc2ccccc2N2C(=O)C3C4C=CC(C4)C3C2=O)c1 (stereo unspecified) | -0.177
36 | O=S(=O)(/N=C(\Nc1ccc(F)cc1)C(F)(F)F)c1ccccc1 | -0.0535
37 | c1ccc(Cn2c(SCc3nc4ccccc4s3)nnc2-c2ccco2)cc1 | -2.72
38 | COc1c(O)ccc2cnn(-c3ccccc3C)c(=O)c12 | -0.0686

Row | Compound | z-score
39 | COc1cc(CNCc2ccccn2)ccc1OCc1ccc(Cl)cc1Cl | 0.564
40 | CCS(=O)(=O)n1nc(NCc2cccc(OC)c2)nc1NCc1cccc(OC)c1 | 0.0211
41 | O=C(C1CC(=O)N(C2CCCC2)C1)N1CCN(c2ccc(F)cc2)CC1 (stereo unspecified) | 0.304
42 | O=S1(=O)C=C(Oc2ccc3ccccc3c2)c2ccccc21 | 0.0277
43 | COc1ccc(C(=O)NNC(=O)CSc2nnc(COc3ccc4ccccc4c3)n2C)cc1 | -0.222
44 | O=C(N1CCOCC1)C12CC3CC(C1)CC(C(=O)N1CCOCC1)(C3)C2 | 0.153
45 | O=C(Nc1ccc2c(c1)OCO2)N1CCN(C(=O)C2CCCO2)CC1 (stereo unspecified) | 2.05
46 | Cc1ccc(N2CN=C(c3ccccc3)NC2=S)cc1 | 0.328
47 | Cc1ccc(OCC(=O)NC(=S)Nc2cccc(NC(=O)c3ccc(Cl)cc3Cl)c2)cc1 | 0.148
48 | O=C(NC1CCCCC1)Nn1c(-c2ccccc2)nc2ccccc2c1=O | -0.211
49 | CCC(=O)Nc1ccccc1C(=O)N1CCCC1 | 0.0704
50 | O=S(=O)(Cc1ccccc1)c1cnc2ccccc2n1 | 0.576
51 | COC(=O)c1cc(OC)c(OC)cc1NC(=O)CSc1nnnn1Cc1ccccc1 | -0.845
52 | Cc1ccc(S(=O)(=O)N(CC(=O)N=Nc2c(O)[nH]c3ccccc23)c2ccc(C)c(C)c2)cc1 | -0.128
53 | Cc1cc(=O)n2[nH]c(N)c(N=Nc3ccccc3F)c2n1 | -0.231
54 | CCc1ccc(NC(=O)CSc2nc3ccccc3c(=O)n2CCCC(=O)N2CCCC2)cc1 | -0.305
55 | O=C(CSc1ccccn1)Nc1nc2ccc(Br)cc2s1 | -0.035
56 | Cc1ccc(NC(=O)c2cccs2)cc1 | -0.00363
